Here are results for 63 sequences from paper PMC12820563.

Some of the results follow. The list includes weakly bound sequences.

The assay deals with T1, MBP-FoxP3dN (UniProt Q99JB6).
T1 sequence: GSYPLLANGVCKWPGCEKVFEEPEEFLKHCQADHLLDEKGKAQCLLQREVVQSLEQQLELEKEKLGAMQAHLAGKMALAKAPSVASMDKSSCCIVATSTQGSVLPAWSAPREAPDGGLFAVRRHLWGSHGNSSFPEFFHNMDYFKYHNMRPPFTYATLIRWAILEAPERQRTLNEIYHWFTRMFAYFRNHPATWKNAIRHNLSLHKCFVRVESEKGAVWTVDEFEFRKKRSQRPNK
The assay is described as follows: PD-seq (MBP pull-down with sequencing). The settings on record: 20 mM Tris-HCl pH 7.5, 100 mM NaCl, 1.5 mM MgCl2, 0.4 uM protein, 0.1 uM dsDNA library, 30 min, room temperature, amylose pull-down; high values mean tight binding; double strand, one strand shown.
Take “GATGATTGTTCTCCCAGCTGATGAATTATCCTCCTCGAGTAAACAAATTTTCCTAATCTTTCTGTTCAAGCGCCATCTAC”: the binding signal (RPM ratio (pull-down/input)) was determined as 0.291.

Turning to “GATGATTGTTCTCCCAGCTGATGAATTACAACGATCGAGTAAACAAATTTTCCTAATCTTTCTGTTCAAGCGCCATCTAC”, the binding signal (RPM ratio (pull-down/input)) was 0.511.

As for “GATGATTGTTCTCCCAGCTGATGAATTATGGTCCTCGAGTAAACAAATTTTCCTAATCTTTCTGTTCAAGCGCCATCTAC”, the binding signal (RPM ratio (pull-down/input)) stood at 0.559. With “GATGATTGTTCTCCCAGCTGATGAATTCCCCTTCTCGAGTAAACAAATTTTCCTAATCTTTCTGTTCAAGCGCCATCTAC” the figure was 0.258. With “GATGATTGTTCTCCCAGCTGATGAATTGCTTAGCTCGAGTAAACAAATTTTCCTAATCTTTCTGTTCAAGCGCCATCTAC” the figure was 0.719; with “GATGATTGTTCTCCCAGCTGATGAATTTGGATTATCGAGTAAACAAATTTTCCTAATCTTTCTGTTCAAGCGCCATCTAC”, 1.04. As for “GATGATTGTTCTCCCAGCTGATGAATTCTCTTAGTCGAGTAAACAAATTTTCCTAATCTTTCTGTTCAAGCGCCATCTAC”, the binding signal (RPM ratio (pull-down/input)) was found to be 0.273. To “GATGATTGTTCTCCCAGCTGATGAATTCCAATTGTCGAGTAAACAAATTTTCCTAATCTTTCTGTTCAAGCGCCATCTAC” belongs 0.958. On to “GATGATTGTTCTCCCAGCTGATGAATTTGCTTCTTCGAGTAAACAAATTTTCCTAATCTTTCTGTTCAAGCGCCATCTAC”, for which the binding signal (RPM ratio (pull-down/input)) amounted to 2.97. Consider “GATGATTGTTCTCCCAGCTGATGAATTAAGAAAATCGAGTAAACAAATTTTCCTAATCTTTCTGTTCAAGCGCCATCTAC”, for which the binding signal (RPM ratio (pull-down/input)) was found to be 0.174. With “GATGATTGTTCTCCCAGCTGATGAATTTTGTTAGTCGAGTAAACAAATTTTCCTAATCTTTCTGTTCAAGCGCCATCTAC” the figure was 6.69; with “GATGATTGTTCTCCCAGCTGATGAATTATAACTGTCGAGTAAACAAATTTTCCTAATCTTTCTGTTCAAGCGCCATCTAC”, 0.476. As to “GATGATTGTTCTCCCAGCTGATGAATTGGGCCCTTCGAGTAAACAAATTTTCCTAATCTTTCTGTTCAAGCGCCATCTAC”, the binding signal (RPM ratio (pull-down/input)) is 0.711.

Regarding “GATGATTGTTCTCCCAGCTGATGAATTCTCCTCCTCGAGTAAACAAATTTTCCTAATCTTTCTGTTCAAGCGCCATCTAC”, the binding signal (RPM ratio (pull-down/input)) worked out at 0.198. “GATGATTGTTCTCCCAGCTGATGAATTGACAGTATCGAGTAAACAAATTTTCCTAATCTTTCTGTTCAAGCGCCATCTAC”: the binding signal (RPM ratio (pull-down/input)) was 0.709.

On to “GATGATTGTTCTCCCAGCTGATGAATTTAGGCAATCGAGTAAACAAATTTTCCTAATCTTTCTGTTCAAGCGCCATCTAC”, for which the binding signal (RPM ratio (pull-down/input)) stood at 2.05.

“GATGATTGTTCTCCCAGCTGATGAATTGATGTTCTCGAGTAAACAAATTTTCCTAATCTTTCTGTTCAAGCGCCATCTAC”: the binding signal (RPM ratio (pull-down/input)) came to 1.61.

As for “GATGATTGTTCTCCCAGCTGATGAATTCAGATCATCGAGTAAACAAATTTTCCTAATCTTTCTGTTCAAGCGCCATCTAC”, the binding signal (RPM ratio (pull-down/input)) turned out to be 0.365. With “GATGATTGTTCTCCCAGCTGATGAATTGCGCAAATCGAGTAAACAAATTTTCCTAATCTTTCTGTTCAAGCGCCATCTAC” the figure was 1.06.

Take “GATGATTGTTCTCCCAGCTGATGAATTCTGTACGTCGAGTAAACAAATTTTCCTAATCTTTCTGTTCAAGCGCCATCTAC”: the binding signal (RPM ratio (pull-down/input)) is 0.795. To “GATGATTGTTCTCCCAGCTGATGAATTAAAGCAGTCGAGTAAACAAATTTTCCTAATCTTTCTGTTCAAGCGCCATCTAC” belongs 0.508. With “GATGATTGTTCTCCCAGCTGATGAATTGTGAGATTCGAGTAAACAAATTTTCCTAATCTTTCTGTTCAAGCGCCATCTAC” the figure was 0.905; with “GATGATTGTTCTCCCAGCTGATGAATTGTGCATATCGAGTAAACAAATTTTCCTAATCTTTCTGTTCAAGCGCCATCTAC”, 4.67. To “GATGATTGTTCTCCCAGCTGATGAATTGTCATAATCGAGTAAACAAATTTTCCTAATCTTTCTGTTCAAGCGCCATCTAC” belongs 0.614; to “GATGATTGTTCTCCCAGCTGATGAATTCGGTGTGTCGAGTAAACAAATTTTCCTAATCTTTCTGTTCAAGCGCCATCTAC”, 2.12. Turning to “GATGATTGTTCTCCCAGCTGATGAATTGGTAGATTCGAGTAAACAAATTTTCCTAATCTTTCTGTTCAAGCGCCATCTAC”, the binding signal (RPM ratio (pull-down/input)) came to 0.462.

As for “GATGATTGTTCTCCCAGCTGATGAATTCGATCTCTCGAGTAAACAAATTTTCCTAATCTTTCTGTTCAAGCGCCATCTAC”, the binding signal (RPM ratio (pull-down/input)) worked out at 0.334.

For the sequence “GATGATTGTTCTCCCAGCTGATGAATTGTCTGGCTCGAGTAAACAAATTTTCCTAATCTTTCTGTTCAAGCGCCATCTAC”, the binding signal (RPM ratio (pull-down/input)) is 0.294. Turning to “GATGATTGTTCTCCCAGCTGATGAATTGGAGATATCGAGTAAACAAATTTTCCTAATCTTTCTGTTCAAGCGCCATCTAC”, the binding signal (RPM ratio (pull-down/input)) came to 0.348. To “GATGATTGTTCTCCCAGCTGATGAATTGAGGGGCTCGAGTAAACAAATTTTCCTAATCTTTCTGTTCAAGCGCCATCTAC” belongs 0.368.

Turning to “GATGATTGTTCTCCCAGCTGATGAATTCAAGGTTTCGAGTAAACAAATTTTCCTAATCTTTCTGTTCAAGCGCCATCTAC”, the binding signal (RPM ratio (pull-down/input)) is 0.4. To “GATGATTGTTCTCCCAGCTGATGAATTCAGTCCATCGAGTAAACAAATTTTCCTAATCTTTCTGTTCAAGCGCCATCTAC” belongs 0.358; to “GATGATTGTTCTCCCAGCTGATGAATTTTAGTAGTCGAGTAAACAAATTTTCCTAATCTTTCTGTTCAAGCGCCATCTAC”, 0.549; to “GATGATTGTTCTCCCAGCTGATGAATTCGGCATCTCGAGTAAACAAATTTTCCTAATCTTTCTGTTCAAGCGCCATCTAC”, 7.14.

Take “GATGATTGTTCTCCCAGCTGATGAATTAAAGCATTCGAGTAAACAAATTTTCCTAATCTTTCTGTTCAAGCGCCATCTAC”: the binding signal (RPM ratio (pull-down/input)) was 5.57. To “GATGATTGTTCTCCCAGCTGATGAATTTTAAGTATCGAGTAAACAAATTTTCCTAATCTTTCTGTTCAAGCGCCATCTAC” belongs 0.595; to “GATGATTGTTCTCCCAGCTGATGAATTGCTCTCTTCGAGTAAACAAATTTTCCTAATCTTTCTGTTCAAGCGCCATCTAC”, 0.468. To “GATGATTGTTCTCCCAGCTGATGAATTAACTAGATCGAGTAAACAAATTTTCCTAATCTTTCTGTTCAAGCGCCATCTAC” belongs 0.192; to “GATGATTGTTCTCCCAGCTGATGAATTCAAAGCGTCGAGTAAACAAATTTTCCTAATCTTTCTGTTCAAGCGCCATCTAC”, 0.406. With “GATGATTGTTCTCCCAGCTGATGAATTAGTCATGTCGAGTAAACAAATTTTCCTAATCTTTCTGTTCAAGCGCCATCTAC” the figure was 1.51; with “GATGATTGTTCTCCCAGCTGATGAATTGATAGTTTCGAGTAAACAAATTTTCCTAATCTTTCTGTTCAAGCGCCATCTAC”, 0.756. As for “GATGATTGTTCTCCCAGCTGATGAATTATATGATTCGAGTAAACAAATTTTCCTAATCTTTCTGTTCAAGCGCCATCTAC”, the binding signal (RPM ratio (pull-down/input)) was 2.19. Turning to “GATGATTGTTCTCCCAGCTGATGAATTGTCATGTTCGAGTAAACAAATTTTCCTAATCTTTCTGTTCAAGCGCCATCTAC”, the binding signal (RPM ratio (pull-down/input)) was found to be 0.964. Turning to “GATGATTGTTCTCCCAGCTGATGAATTATGAATCTCGAGTAAACAAATTTTCCTAATCTTTCTGTTCAAGCGCCATCTAC”, the binding signal (RPM ratio (pull-down/input)) was determined as 2.3. With “GATGATTGTTCTCCCAGCTGATGAATTCGTTATCTCGAGTAAACAAATTTTCCTAATCTTTCTGTTCAAGCGCCATCTAC” the figure was 2.4; with “GATGATTGTTCTCCCAGCTGATGAATTCATAATCTCGAGTAAACAAATTTTCCTAATCTTTCTGTTCAAGCGCCATCTAC”, 0.35; with “GATGATTGTTCTCCCAGCTGATGAATTCGGGACATCGAGTAAACAAATTTTCCTAATCTTTCTGTTCAAGCGCCATCTAC”, 0.428.

Turning to “GATGATTGTTCTCCCAGCTGATGAATTGGAGTCTTCGAGTAAACAAATTTTCCTAATCTTTCTGTTCAAGCGCCATCTAC”, the binding signal (RPM ratio (pull-down/input)) came out at 0.433. Regarding “GATGATTGTTCTCCCAGCTGATGAATTACATGACTCGAGTAAACAAATTTTCCTAATCTTTCTGTTCAAGCGCCATCTAC”, the binding signal (RPM ratio (pull-down/input)) came out at 0.445. To “GATGATTGTTCTCCCAGCTGATGAATTGAGCTCTTCGAGTAAACAAATTTTCCTAATCTTTCTGTTCAAGCGCCATCTAC” belongs 0.468; to “GATGATTGTTCTCCCAGCTGATGAATTACGAAGTTCGAGTAAACAAATTTTCCTAATCTTTCTGTTCAAGCGCCATCTAC”, 0.334.

On to “GATGATTGTTCTCCCAGCTGATGAATTCGATTCATCGAGTAAACAAATTTTCCTAATCTTTCTGTTCAAGCGCCATCTAC”, for which the binding signal (RPM ratio (pull-down/input)) came out at 0.736.

For “GATGATTGTTCTCCCAGCTGATGAATTAGATGATTCGAGTAAACAAATTTTCCTAATCTTTCTGTTCAAGCGCCATCTAC”, the binding signal (RPM ratio (pull-down/input)) came out at 1.25. With “GATGATTGTTCTCCCAGCTGATGAATTAAGGTGTTCGAGTAAACAAATTTTCCTAATCTTTCTGTTCAAGCGCCATCTAC” the figure was 0.773; with “GATGATTGTTCTCCCAGCTGATGAATTTTCCGACTCGAGTAAACAAATTTTCCTAATCTTTCTGTTCAAGCGCCATCTAC”, 0.237. To “GATGATTGTTCTCCCAGCTGATGAATTTTTCGTTTCGAGTAAACAAATTTTCCTAATCTTTCTGTTCAAGCGCCATCTAC” belongs 0.335; to “GATGATTGTTCTCCCAGCTGATGAATTCGTATTGTCGAGTAAACAAATTTTCCTAATCTTTCTGTTCAAGCGCCATCTAC”, 2.37; to “GATGATTGTTCTCCCAGCTGATGAATTCATCGCATCGAGTAAACAAATTTTCCTAATCTTTCTGTTCAAGCGCCATCTAC”, 1. Regarding “GATGATTGTTCTCCCAGCTGATGAATTCTAATTCTCGAGTAAACAAATTTTCCTAATCTTTCTGTTCAAGCGCCATCTAC”, the binding signal (RPM ratio (pull-down/input)) stood at 0.493.

For “GATGATTGTTCTCCCAGCTGATGAATTTAACTATTCGAGTAAACAAATTTTCCTAATCTTTCTGTTCAAGCGCCATCTAC”, the binding signal (RPM ratio (pull-down/input)) was 0.445. With “GATGATTGTTCTCCCAGCTGATGAATTCGCAACATCGAGTAAACAAATTTTCCTAATCTTTCTGTTCAAGCGCCATCTAC” the figure was 3.35. Regarding “GATGATTGTTCTCCCAGCTGATGAATTGGTGACCTCGAGTAAACAAATTTTCCTAATCTTTCTGTTCAAGCGCCATCTAC”, the binding signal (RPM ratio (pull-down/input)) amounted to 0.446. To “GATGATTGTTCTCCCAGCTGATGAATTCAGGCCATCGAGTAAACAAATTTTCCTAATCTTTCTGTTCAAGCGCCATCTAC” belongs 0.932.
